In patent publication US20260193238A1, “PHARMACEUTICAL COMPOUNDS AS PARP7 AND/OR PARP1 INHIBITORS” (Duke Street Bio Limited, priority 2022, published 2026):

Target: T1, PARP7 (amino acids 456-657) (Homo sapiens, UniProt Q7Z3E1)
T1 sequence (Q7Z3E1 456-657): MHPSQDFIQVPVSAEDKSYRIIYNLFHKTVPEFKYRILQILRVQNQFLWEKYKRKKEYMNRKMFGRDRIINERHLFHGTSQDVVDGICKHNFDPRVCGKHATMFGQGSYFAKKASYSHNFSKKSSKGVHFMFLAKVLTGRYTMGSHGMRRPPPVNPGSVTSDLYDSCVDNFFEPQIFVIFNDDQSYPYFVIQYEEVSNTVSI
Assay: PARP7 biochemical DELFIA assay (auto-MARylation)
Details: Table 1

| SMILES | IC50 [nM] |
| --- | --- |
| N#Cc1ccc(N2CCN(C(=O)CCN3CCCC(c4cc(C(F)(F)F)c(=O)[nH]n4)C3)CC2)nc1 (single isomer, unassigned) [Compound 11b] | 1000 to 10000 |
| O=C(CN1CCN(c2ncc(C(F)(F)F)cn2)CC1)N1CCCC1c1cc(C(F)(F)F)c(=O)[nH]n1 (single isomer, unassigned) [Compound 32b] | > 10000 |
| O=C(CCN1CCC(c2cc(C(F)(F)F)c(=O)[nH]n2)C1)N1CCN(c2ncc(C(F)(F)F)cn2)CC1 (single isomer, unassigned) [Compound 7a] | 100 to 1000 |
| CN(C(=O)CN1CCCC(c2cc(C(F)(F)F)c(=O)[nH]n2)C1)C1CCN(c2ncc(C(F)(F)F)cn2)CC1 (single isomer, unassigned) [Compound 3a] | 10 to 100 |
| O=C(CN1CCN(c2ncc(C(F)(F)F)cn2)CC1)N1CCCC1c1cc(C(F)(F)F)c(=O)[nH]n1 (single isomer, unassigned) [Compound 32a] | 100 to 1000 |
| O=C(CCN1CCCC(c2cc(C(F)(F)F)c(=O)[nH]n2)C1)N1CCN(c2ncc(C(F)(F)F)s2)CC1 (single isomer, unassigned) [Compound 27b] | 10 to 100 |
| CN(C(=O)CN1CCCC(c2cc(C(F)(F)F)c(=O)[nH]n2)C1)C1CCN(c2ncc(C(F)(F)F)cn2)CC1 (single isomer, unassigned) [Compound 3b] | 100 to 1000 |
| O=C(CN1CCCC(c2cc(C(F)(F)F)c(=O)[nH]n2)C1)NC1CCN(c2ncc(C(F)(F)F)cn2)CC1 (single isomer, unassigned) [Compound 2a] | 100 to 1000 |
| CCc1cc(C2CCCN(CCC(=O)N3CCN(c4ncc(C(F)(F)F)cn4)CC3)C2)n[nH]c1=O (single isomer, unassigned) [Compound 6b, 4-ethyl-6-(1-(3-oxo-3-(4-(5-(trifluoromethyl)pyrimidin-2-yl)piperazin-1-yl)propyl)piperidin-3-yl)pyridazin-3(2H)-one] | 1000 to 10000 |
| O=C(CCN1CCCC(c2c[nH]c(=O)c(C(F)(F)F)c2)C1)N1CCN(c2ncc(C(F)(F)F)cn2)CC1 (single isomer, unassigned) [Compound 25b] | 100 to 1000 |
| O=C(CCN1CCCC(c2cc(C(F)(F)F)c(=O)[nH]n2)C1)N1CCN(c2ccc(F)cn2)CC1 (single isomer, unassigned) [Compound 8b] | 1000 to 10000 |

Same assay, conditions: Table 1A

| SMILES | IC50 [nM] |
| --- | --- |
| O=C(CN1CCCC1c1cc(C(F)(F)F)c(=O)[nH]n1)N1CCN(c2ncc(F)cn2)CC1 (single isomer, unassigned) [Compound 43a] | ≤ 10 |
| O=C(CN1CCCC1c1cc(C(F)(F)F)c(=O)[nH]n1)N1CCN(c2nc3cc(Cl)ccc3o2)CC1 (single isomer, unassigned) [Compound 99a] | ≤ 10 |
| O=C(CN1CCCC1c1cc(C(F)(F)F)c(=O)[nH]n1)N1CCN(c2ccc(OC(F)(F)F)cn2)CC1 (single isomer, unassigned) [Compound 81b] | ≤ 10 |
| N#Cc1ccc2nc(N3CCN(C(=O)CN4CCCC4c4cc(C(F)(F)F)c(=O)[nH]n4)CC3)oc2c1 (single isomer, unassigned) [Compound 96b] | ≤ 10 |
| O=C(CN1CCCC1c1c[nH]c(=O)c(Cl)c1)N1CCN(c2ncc(C(F)(F)F)cn2)CC1 (single isomer, unassigned) [Compound 78a, 3-chloro-5-(1-(2-oxo-2-(4-(5-(trifluoromethyl)pyrimidin-2-yl)piperazin-1-yl)ethyl)pyrrolidin-2-yl)pyridin-2(1H)-one] | ≤ 10 |
| O=C(CN1CC2(c3cc(C(F)(F)F)c(=O)[nH]n3)CC1C2)N1CCN(c2ncc(C(F)(F)F)cn2)CC1 [Compound 86] | 1000 to 10000 |
| N#Cc1cc(C2CCCN2CC(=O)N2CCN(c3nc4cc(F)ccc4o3)CC2)n[nH]c1=O (single isomer, unassigned) [Compound 149a] | ≤ 10 |
| O=C(CN1CCCC1c1cc(C(F)(F)F)c(=O)[nH]n1)N1CCN(c2ncc(Cl)cn2)CC1 (single isomer, unassigned) [Compound 35b] | 100 to 1000 |
| CC1(C)CC(c2cc(C(F)(F)F)c(=O)[nH]n2)CN(CCC(=O)N2CCN(c3ncc(C(F)(F)F)cn3)CC2)C1 (single isomer, unassigned) [Compound 87b] | 10 to 100 |
| CC1(C)CC(c2cc(C(F)(F)F)c(=O)[nH]n2)N(CC(=O)N2CCN(c3ncc(C(F)(F)F)cn3)CC2)C1 (single isomer, unassigned) [Compound 94b] | 1000 to 10000 |
| O=C(CN1CCCC1c1cc(C(F)(F)F)c(=O)[nH]n1)N1CCN(c2nc3ccc(Cl)cc3o2)CC1 (single isomer, unassigned) [Compound 85b] | 100 to 1000 |
| Cn1c(N2CCN(C(=O)CN3CCCC3c3cc(C(F)(F)F)c(=O)[nH]n3)CC2)nc2ccc(F)cc21 (single isomer, unassigned) [Compound 119b] | 1000 to 10000 |
| CCc1cc(C2CCCN2CC(=O)N2CCN(c3ncc(C(F)(F)F)cn3)CC2)n[nH]c1=O (single isomer, unassigned) [Compound 40a] | ≤ 10 |
| O=C(CN1CCCC1c1cc(C(F)(F)F)c(=O)[nH]n1)N1CCN(c2nc3ccc(F)cn3n2)CC1 (single isomer, unassigned) [Compound 128a] | ≤ 10 |
| O=C(CN1CCCC1c1cc(C(F)(F)F)c(=O)[nH]n1)N1CCN(c2ccc(Cl)cn2)CC1 (single isomer, unassigned) [Compound 41a] | ≤ 10 |
| O=C(CN1CCCC1c1c[nH]c(=O)c(C(F)(F)F)c1)N1CCN(c2ncc(Cl)cn2)CC1 (single isomer, unassigned) [Compound 74b] | 100 to 1000 |
| CCc1cc(C2CCCN2CC(=O)N2CCN(c3ncc(C(F)(F)F)cn3)CC2)n[nH]c1=O (single isomer, unassigned) [Compound 40b] | 1000 to 10000 |
| N#Cc1ccc(N2CCN(C(=O)CN3CCCC3c3cc(C(F)(F)F)c(=O)[nH]n3)CC2)nc1 (racemic) [Compound 47rac] | ≤ 10 |
| O=C(CN1CCCC1c1c[nH]c(=O)c(C(F)(F)F)c1)N1CCN(c2ncc(Cl)cn2)CC1 (single isomer, unassigned) [Compound 74a] | ≤ 10 |

| SMILES | IC50 [nM] |
| --- | --- |
| N#Cc1cc(C2CCCN2CC(=O)N2CCN(c3ncc(C(F)(F)F)cn3)CC2)n[nH]c1=O (single isomer, unassigned) [Compound 98b, 3-oxo-6-(1-(2-oxo-2-(4-(5-(trifluoromethyl)pyrimidin-2-yl)piperazin-1-yl)ethyl)pyrrolidin-2-yl)-2,3-dihydropyridazine-4-carbonitrile] | 1000 to 10000 |
| N#Cc1cc(C2CCCN2CC(=O)N2CCN(c3nc4ccc(F)cc4o3)CC2)n[nH]c1=O (single isomer, unassigned) [Compound 111a] | ≤ 10 |
| O=C(CN1CCCC1c1c[nH]c(=O)c(C(F)(F)F)c1)N1CCN(c2ncc(C(F)(F)F)cn2)CC1 (single isomer, unassigned) [Compound 60a, 5-(1-(2-oxo-2-(4-(5-(trifluoromethyl)pyrimidin-2-yl)piperazin-1-yl)ethyl)pyrrolidin-2-yl)-3-(trifluoromethyl)pyridin-2(1H)-one] | ≤ 10 |
| CNC(=O)c1ccc(N2CCN(C(=O)CCN3CCC(c4cc(C(F)(F)F)c(=O)[nH]n4)CC3)CC2)cn1 [Compound 59] | > 10000 |
| O=C(CN1CCCC1c1cc(C(F)(F)F)c(=O)[nH]n1)N1CCN(c2ncc(OC(F)F)cn2)CC1 (single isomer, unassigned) [Compound 118b] | 1000 to 10000 |
| O=C(CN1CCCC1c1cc(C(F)(F)F)c(=O)[nH]n1)N1CCN(c2cnc(C(F)(F)F)cn2)CC1 (single isomer, unassigned) [Compound 45a] | ≤ 10 |
| CCc1[nH]c(=O)c(C(F)(F)F)cc1C1CCCN1CC(=O)N1CCN(c2ncc(C(F)(F)F)cn2)CC1 (single isomer, unassigned) [Compound 105a] | 10 to 100 |
| N#Cc1[nH]c(=O)c(C(F)(F)F)cc1C1CCCN1CC(=O)N1CCN(c2ncc(C(F)(F)F)cn2)CC1 (racemic) [Compound 115rac] | 100 to 1000 |
| CN(C(=O)CN1CCCC1c1cc(C(F)(F)F)c(=O)[nH]n1)C1CCN(c2ncc(C(F)(F)F)cn2)CC1 (single isomer, unassigned) [Compound 34b] | 1000 to 10000 |
| O=C(CN1CCC(c2cc(C(F)(F)F)c(=O)[nH]n2)CC1)N1CCN(c2ncc(C(F)(F)F)cn2)CC1 [Compound 62] | 100 to 1000 |
| N#Cc1cnc(N2CCN(C(=O)CN3CCCC3c3cc(C(F)(F)F)c(=O)[nH]n3)CC2)s1 (racemic) [Compound 44rac] | ≤ 10 |
| O=C(CCN1CCC(c2cc(C(F)(F)F)c(=O)[nH]n2)CC1)N1CCN(c2ncc(C(F)(F)F)cn2)CC1 [Compound 61] | > 10000 |
| O=C(CN1CCCC1c1cc(C(F)(F)F)c(=O)[nH]n1)N1CCN(c2nc3cc(F)ccc3o2)CC1 (single isomer, unassigned) [Compound 150b] | 10 to 100 |
| Cc1[nH]c(=O)c(C(F)(F)F)cc1C1CCCN1CC(=O)N1CCN(c2ncc(C(F)(F)F)cn2)CC1 (single isomer, unassigned) [Compound 102b, 6-methyl-5-(1-(2-oxo-2-(4-(5-(trifluoromethyl)pyrimidin-2-yl)piperazin-1-yl)ethyl)pyrrolidin-2-yl)-3-(trifluoromethyl)pyridin-2(1H)-one] | 10 to 100 |
| CNC(=O)c1ccc(N2CCN(C(=O)CCN3CCCC3c3c[nH]c(=O)c(C(F)(F)F)c3)CC2)cn1 (single isomer, unassigned) [Compound 73b] | 1000 to 10000 |
| CNC(=O)c1ccc(N2CCN(C(=O)CN3CCCC3c3cc(C(F)(F)F)c(=O)[nH]n3)CC2)nc1 (single isomer, unassigned) [Compound 55a] | 1000 to 10000 |
| O=C(CN1CCCC1c1cc(C2CC2)c(=O)[nH]n1)N1CCN(c2ncc(C(F)(F)F)cn2)CC1 (racemic) [Compound 65rac] | 10 to 100 |
| CNC(=O)c1ccc(N2CCN(C(=O)CCN3CCC3c3cc(C(F)(F)F)c(=O)[nH]n3)CC2)cn1 (single isomer, unassigned) [Compound 56b] | 1000 to 10000 |
| O=C(CN1CCCC1c1cc(C(F)(F)F)c(=O)[nH]n1)N1CCN(c2ncc(C3CC3)cn2)CC1 (single isomer, unassigned) [Compound 69a] | ≤ 10 |
